From article PMC13042919
Where two headings read alike, the source gives them in different places. No constants are given. Whether binding was seen depends on the method and setting. Binding seen in cells or lysates may run through a third protein. Some results given as binding are weak or reduced against the parent protein; the word gives no strength.

Chains of the proteins cited; added tags and fusions are not shown. Lines headed by an entry give the natural chain unless they say otherwise; changes in a name come on top. A line that says so, or that is headed by a name, gives the form on record, which may keep a tag or linker. Residues count along the entry.
UniProt O15392: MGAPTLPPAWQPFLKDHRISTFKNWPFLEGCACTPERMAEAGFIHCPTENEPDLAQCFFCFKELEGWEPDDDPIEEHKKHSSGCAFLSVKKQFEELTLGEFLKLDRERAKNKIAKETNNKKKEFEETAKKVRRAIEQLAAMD
GST-SVN 20-90 aa (BIR domain of survivin): residues 20-90 of O15392
GST-SVN 90-142 aa (C-terminus of survivin): residues 90-142 of O15392
GST-SVN(DD70-71AA) (O15392, form named): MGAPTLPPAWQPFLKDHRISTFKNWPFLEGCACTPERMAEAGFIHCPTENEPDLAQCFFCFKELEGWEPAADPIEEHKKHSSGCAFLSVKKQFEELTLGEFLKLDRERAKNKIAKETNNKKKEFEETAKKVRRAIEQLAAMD
UniProt Q96GD4: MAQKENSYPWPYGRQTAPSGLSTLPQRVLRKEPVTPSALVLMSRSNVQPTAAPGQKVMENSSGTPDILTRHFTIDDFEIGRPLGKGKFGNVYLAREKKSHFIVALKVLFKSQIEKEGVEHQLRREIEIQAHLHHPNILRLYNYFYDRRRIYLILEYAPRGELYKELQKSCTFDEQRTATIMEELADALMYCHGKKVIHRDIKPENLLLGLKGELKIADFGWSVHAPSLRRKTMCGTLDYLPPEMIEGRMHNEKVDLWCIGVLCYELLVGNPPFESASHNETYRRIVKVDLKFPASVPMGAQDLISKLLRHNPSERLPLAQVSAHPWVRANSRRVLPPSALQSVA

Columns and labels:
GST-SVN(DD70-71AA) [1] = target: GST-SVN(DD70-71AA) (UniProt O15392); test: pull-down; purified GST-survivin, truncations or DD70-71AA on glutathione beads incubated 2 h at 4 °C with in vitro translated (TNT-T7 reticulocyte) AURKA-Venus or AURKB; immunoblot; only the target purified
[2] = target: GST-survivin, full-length (GST-SVN 1-142 aa) (UniProt O15392); test: as above
[3] = target: GST-survivin, full-length (GST-SVN 1-142 aa) (UniProt O15392); test: pull-down; purified GST-survivin on glutathione beads incubated 2 h at 4 °C with extracts of HeLa cells synchronised with DMA (prometaphase), released into MG132 (metaphase) or 1 h into drug-free medium (anaphase-telophase); washes 50 mM Tris/HCl pH 8.0, 150 mM NaCl, 1% NP-40; immunoblot for AURKA; only the target purified
[4] = target: GST-survivin, full-length (GST-SVN 1-142 aa) (UniProt O15392); test: pull-down; as a1, but extract of HeLa cells harvested 2 h after release from DMA (cytokinesis); only the target purified
[5] = target: GST-SVN 20-90 aa (BIR domain of survivin) (UniProt O15392); test: pull-down; purified GST-survivin truncations on glutathione beads incubated 2 h at 4 °C with asynchronous HeLa whole cell extract; immunoblot for AURKA; only the target purified
survivin-GFP = survivin-GFP (UniProt O15392); test: co-IP; GFP-Trap beads with lysates of asynchronous HeLa stable lines expressing GFP or survivin-GFP; 10 mM Tris/HCl pH 7.5, 150 mM NaCl, 0.5 mM EDTA, 0.5% NP-40; 4 °C; immunoblot for AURKA
GST-SVN(DD70-71AA) [6] = target: GST-SVN(DD70-71AA) (UniProt O15392); test: pull-down; purified GST-survivin, truncations or DD70-71AA on glutathione beads incubated 2 h at 4 °C with in vitro translated (TNT-T7 reticulocyte) AURKA-Venus or AURKB; immunoblot; only the target purified; remark: listed apart in the source
[7] = target: GST-SVN 20-90 aa (BIR domain of survivin) (UniProt O15392); test: as above
[8] = target: GST-survivin, full-length (GST-SVN 1-142 aa) (UniProt O15392); test: as above; remark: listed apart in the source
[9] = target: GST-SVN 90-142 aa (C-terminus of survivin) (UniProt O15392); test: as above
survivin T34A = survivin T34A (UniProt O15392); test: pull-down; GST pulldown with survivin point mutants T34A/E and T48A/E (Fig. S2D,E); source of AURKA not told in what was shown
survivin T34E = survivin T34E (UniProt O15392); test: as above
survivin T48A = survivin T48A (UniProt O15392); test: as above
survivin T48E = survivin T48E (UniProt O15392); test: as above

Molecule: AURKB, in vitro translated (from UniProt Q96GD4 1-344) (enzyme)
- binding (GST-SVN(DD70-71AA) [1]): no binding
- binding [2]: binds

B1: aurora kinase A (AURKA), endogenous in HeLa cells (enzyme, UniProt O14965 1-403)
chain: MDRSKENCISGPVKATAPVGGPKRVLVTQQFPCQNPLPVNSGQAQRVLCPSNSSQRIPLQAQKLVSSHKPVQNQKQKQLQATSVPHPVSRPLNNTQKSKQPLPSAPENNPEEELASKQKNEESKKRQWALEDFEIGRPLGKGKFGNVYLAREKQSKFILALKVLFKAQLEKAGVEHQLRREVEIQSHLRHPNILRLYGYFHDATRVYLILEYAPLGTVYRELQKLSKFDEQRTATYITELANALSYCHSKRVIHRDIKPENLLLGSAGELKIADFGWSVHAPSSRRTTLCGTLDYLPPEMIEGRMHDEKVDLWSLGVLCYEFLVGKPPFEANTYQETYKRISRVEFTFPDFVTEGARDLISRLLKHNPSQRPMLREVLEHPWITANSSKPSNCQNKESASKQS
- binding [3]: binds
- binding [4]: binds weakly
- binding [5]: binds
- binding (survivin-GFP): binds

B2: AURKA-Venus, in vitro translated (enzyme, UniProt O14965 1-403)
chain: MDRSKENCISGPVKATAPVGGPKRVLVTQQFPCQNPLPVNSGQAQRVLCPSNSSQRIPLQAQKLVSSHKPVQNQKQKQLQATSVPHPVSRPLNNTQKSKQPLPSAPENNPEEELASKQKNEESKKRQWALEDFEIGRPLGKGKFGNVYLAREKQSKFILALKVLFKAQLEKAGVEHQLRREVEIQSHLRHPNILRLYGYFHDATRVYLILEYAPLGTVYRELQKLSKFDEQRTATYITELANALSYCHSKRVIHRDIKPENLLLGSAGELKIADFGWSVHAPSSRRTTLCGTLDYLPPEMIEGRMHDEKVDLWSLGVLCYEFLVGKPPFEANTYQETYKRISRVEFTFPDFVTEGARDLISRLLKHNPSQRPMLREVLEHPWITANSSKPSNCQNKESASKQS
- binding (GST-SVN(DD70-71AA) [6]): binds
- binding [7]: binds
- binding [8]: binds
- binding [9]: no binding
- binding (survivin T34A): binds
- binding (survivin T34E): binds
- binding (survivin T48A): binds
- binding (survivin T48E): binds
